In article PMC12214610:

Assays:
[1] = biological target: Large ribosomal subunit protein bL33 (UniProt P0A7N9)
[2] = biological target: DNA-binding protein HU-alpha (UniProt P0ACF0)
Sequence of UniProt P0ACF0 (P0ACF0 whole entry): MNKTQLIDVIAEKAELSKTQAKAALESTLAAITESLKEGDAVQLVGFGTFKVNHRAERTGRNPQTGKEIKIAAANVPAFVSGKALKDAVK

**Q.** How did the “listed as a hit” value [1] turn out when Large ribosomal subunit protein uL1 was run?
**A.** The value was “yes”.

**Q.** And the “listed as a hit” value [2]?
**A.** Its value is “yes”.
